{"source": "PubChem BioAssay AID1240", "about": "(Sanford-Burnham Center for Chemical Genomics, 2008)", "note": "Hit rate of the full screen: of about 50,000 compounds, about 800 (1.6%) showed an effect of 50% or more. This is one part of the list.", "data": [{"target": "Bcl-2-like protein 10 (Homo sapiens) (UniProt Q9HD36)", "sequence (Q9HD36 whole entry, looked up)": "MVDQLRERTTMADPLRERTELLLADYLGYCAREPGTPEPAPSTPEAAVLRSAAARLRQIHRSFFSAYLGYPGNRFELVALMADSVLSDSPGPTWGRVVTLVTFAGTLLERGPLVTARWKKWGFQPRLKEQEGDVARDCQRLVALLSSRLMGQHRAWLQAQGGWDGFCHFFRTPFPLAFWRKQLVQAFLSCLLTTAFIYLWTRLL", "assay": "TR3 peptide-Bcl-B binding displacers, biochemical primary FP assay, phenotype converters (AID 1240);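 also: 0% = Bcl-B with tracer peptide and DMSO and 100% = tracer peptide lacking Bcl-B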", "conditions": "GST-Bcl-B / FITC-TR3 peptide fluorescence polarization; stronger effect = higher value; compound at 3.75 mg/L", "units": {"displacement": "%"}, "values": [{"smiles": "Cc1ccc(C(=O)Oc2cccc(C3C4=C(Nc5c3c(=O)n(C)c(=O)n5C)c3ccccc3C4=O)c2)cc1", "note": "(centres undefined)", "displacement": 12.9}, {"smiles": "O=[N+]([O-])c1ccc(-n2ncnc2-c2ccc(Br)cc2)c(Cl)c1", "displacement": 14.5}, {"smiles": "C=CCN1C(=O)/C(=C\\c2ccc(OCCOc3cccc(OC)c3)c(OC)c2)SC1=S", "displacement": 2.2}, {"smiles": "c1ccc2cc(OCCCCn3ccnc3)ccc2c1", "displacement": -9.3}, {"smiles": "COc1ccc2c(c1)CC/C2=N/OC(=O)c1ccc(OC)c([N+](=O)[O-])c1", "displacement": 7.6}, {"smiles": "O=c1cc(-c2ccc([N+](=O)[O-])cc2)nc2cc(-c3cccc(Cl)c3)[nH]n12", "displacement": -4.3}, {"smiles": "Cc1cc(Br)c2[nH]c3c(c2c1)CCCC3=O", "displacement": -5.9}, {"smiles": "Cc1c(NC(=S)NC(C)(C)C)c(=O)n(-c2ccccc2)n1C", "displacement": 5.2}, {"smiles": "O=C(CN1C2=NCCCN2c2ccccc21)c1ccc(Br)cc1", "displacement": 5.9}, {"smiles": "Cc1cc(-c2ccc(/C=c3/sc4nc5ccccc5n4c3=O)o2)cc([N+](=O)[O-])c1C", "displacement": 1.7}, {"smiles": "Cc1cccc(C(=O)O/N=C(\\N)Cc2cccc3ccccc23)c1", "displacement": 40.7}, {"smiles": "O=C(NCCCNC(=O)c1ccc(CN2CCOCC2)cc1)c1ccc(CN2CCOCC2)cc1", "displacement": 0.1}, {"smiles": "Cc1ccc(C)c(NC(=O)CCCCCCCCCCC2COCCO2)c1", "note": "(centres undefined)", "displacement": -7.4}, {"smiles": "CCOC(=O)/C=C/CSc1nc2sc3c(c2c(=O)[nH]1)CCCC3", "displacement": -13.4}, {"smiles": "O=C(CCCN1C(=O)/C(=C\\c2ccc(F)cc2)SC1=S)Nc1ccccc1O", "displacement": -12.5}, {"smiles": "CC(=O)SCCC(=O)N1CCn2c3c(c4cc(C)ccc42)CCCC31", "note": "(centres undefined)", "displacement": 14.3}, {"smiles": "COc1ccc(/C=C2/SC(=O)N(CNc3ccc(Br)cc3C)C2=O)cc1", "displacement": 4.5}, {"smiles": "COc1cc(/C=C2/SC(=S)N(CC(=O)Nc3cccc(C(=O)O)c3)C2=O)cc(OC)c1OC", "displacement": 8.3}, {"smiles": "COc1cc(/C=N\\Nc2nnc(C)c(=O)[nH]2)cc([N+](=O)[O-])c1O", "displacement": -3.3}, {"smiles": "CCc1nnc(NC(=O)CSc2nc3ccccc3[nH]2)s1", "displacement": 5.1}, {"smiles": "CC(=O)c1ccc(Nc2cc(C)nc3ncnn23)cc1", "displacement": 16.7}, {"smiles": "Cc1cccc2c1[nH]c1nc(N/N=C\\c3ccc(-c4ccccc4Cl)o3)nnc12", "displacement": 1.8}, {"smiles": "COc1ccc(OC)c(/C=N/NC(=O)Cn2cnc3ccccc32)c1", "displacement": -0.6}, {"smiles": "CC(=O)C1=C(C)NC(=S)NC1c1ccc(O)cc1", "note": "(centres undefined)", "displacement": 9}, {"smiles": "CCNC(=NCCc1ccccc1)SC1CC(=O)N(c2ccccc2)C1=O", "note": "(centres undefined)", "displacement": -10.7}, {"smiles": "CCCC(C)C1C(C#N)=C(N)Oc2n[nH]c(-c3ccccc3)c21", "note": "(centres undefined)", "displacement": -7.7}, {"smiles": "C=CCn1c(SCC(=O)NCCO)nc2sc(C)c(C)c2c1=O", "displacement": 11.4}, {"smiles": "COc1cc2c(cc1NC(=O)c1ccc(C)c([N+](=O)[O-])c1)oc1ccccc12", "displacement": 1.2}, {"smiles": "Cc1cccc(N2CCN(C3=NC(=O)/C(=C/c4ccc(-c5cccc([N+](=O)[O-])c5)o4)S3)CC2)c1", "displacement": 9.8}, {"smiles": "O=C1C=C(NCc2ccc(F)cc2)CC(c2ccccc2)C1", "note": "(centres undefined)", "displacement": -2.6}, {"smiles": "CC(=O)N1N=C(C)CC1(O)c1cccnc1", "note": "(centres undefined)", "displacement": -7.2}, {"smiles": "COC(=O)c1ccc(NC(=S)Nc2ccccc2)cc1", "displacement": 1.3}, {"smiles": "CCC(=O)Oc1ccc2c(=O)c(-c3ccccc3)coc2c1", "displacement": 11}, {"smiles": "CC1(C)Cc2c(sc(NC(=O)C3(c4ccccc4)CCCC3)c2C#N)CO1", "displacement": -11.3}, {"smiles": "Cc1ccc(/C(N)=N/OC(=O)COc2cccc(C)c2)cc1", "displacement": -1.3}, {"smiles": "COc1ccc(/C(N)=N/OC(=O)c2ccc(Br)cc2)cc1", "displacement": -1.1}, {"smiles": "CSc1ccc(CN2CCN(Cc3ccccc3C(F)(F)F)CC2)cc1", "displacement": -6.8}, {"smiles": "COc1ccc(-c2c(C#N)c(N)nc(SCC(=O)OCc3ccccc3)c2C#N)cc1", "displacement": -12}, {"smiles": "O=C(NCc1cccs1)c1cc2n(n1)C(C(F)(F)F)CC(c1ccc(Cl)c(Cl)c1)N2", "note": "(centres undefined)", "displacement": -0.6}, {"smiles": "COC(=O)c1c(C)oc2ccc(NS(=O)(=O)c3ccc(Cl)cc3)cc12", "displacement": 1.4}, {"smiles": "COc1ccc(-c2nnc(Nc3ccccc3)c3ccccc23)cc1", "displacement": 0.8}, {"smiles": "O=C1N=c2ccccc2=C1c1c(O)n(-c2ccccc2)[nH]c1=O", "displacement": -4.6}, {"smiles": "Cc1ccc2nsnc2c1NC(=O)c1cc(Cl)ccc1Cl", "displacement": 31}, {"smiles": "O=C(O)CCN1C(=O)/C(=C/c2ccc(-c3ccc(Cl)cc3)o2)SC1=S", "displacement": -78.5}, {"smiles": "O=C1NC(=O)N(c2ccc(Cl)cc2)C(=O)/C1=C/c1cccc(F)c1", "displacement": -7.8}, {"smiles": "O=C1NN(c2ccccc2)C(=O)/C1=C/c1ccc(F)c(Br)c1", "displacement": 4.7}, {"smiles": "CCCCOc1ccc(C(=O)Nc2ccccc2OC(C)C)cc1", "displacement": 10.7}, {"smiles": "COc1ccc(/C=N/n2cn[nH]c2=S)cc1", "displacement": -6.3}, {"smiles": "O=C(NCCc1ccccc1)c1cc2n(n1)C(C(F)(F)F)CC(c1cccs1)N2", "note": "(centres undefined)", "displacement": 7}, {"smiles": "O=C1CC(c2ccccc2)=NN1c1nc2ccccc2s1", "displacement": -15.5}, {"smiles": "CCOC(=O)C(NC(=O)CC)C(O)c1cccc([N+](=O)[O-])c1", "note": "(centres undefined)", "displacement": -0.9}, {"smiles": "CCOc1ccc(N(CC(=O)Nc2ccc(OC)cc2OC)S(=O)(=O)c2ccc(SC)cc2)cc1", "displacement": 9.6}, {"smiles": "CCN(CC)c1ccc(C(=O)N2CCN(c3ccccc3OC)CC2)cc1", "displacement": 0.8}, {"smiles": "O=C(Nc1ccc(-c2cn3ccccc3n2)cc1)c1ccccc1Cl", "displacement": 12.2}, {"smiles": "Cc1ccnc(NS(=O)(=O)c2ccc(NC(=O)c3cc(-c4ccccc4)nc4ccccc34)cc2)n1", "displacement": 12.6}, {"smiles": "c1ccc(OCCCN2CCCC2)cc1", "displacement": -4}, {"smiles": "CCOC(=O)C1=C(C)N=c2s/c(=C\\c3ccc4ccccc4n3)c(=O)n2C1c1ccccc1", "note": "(centres undefined)", "displacement": -11.7}, {"smiles": "CCOc1ccc(N(CC(=O)Nc2ccc(C)c(C)c2)S(C)(=O)=O)cc1", "displacement": 43.3}, {"smiles": "COc1cc(NC(=O)c2cccc(OC)c2)cc(OC)c1", "displacement": -2.1}, {"smiles": "COc1ccc(C(=O)NCC2CCCO2)cc1I", "note": "(centres undefined)", "displacement": -5.7}, {"smiles": "O=C1C(=O)N(c2nc3ccccc3s2)C(c2ccccc2Cl)/C1=C(/O)c1ccccc1", "note": "(centres undefined)", "displacement": 5}, {"smiles": "Brc1ccc(N2COc3ccc4ccccc4c3C2)cc1", "displacement": -1.2}, {"smiles": "CSc1nncn1/N=C/c1ccc(Br)cc1", "displacement": -0.9}, {"smiles": "O=C(N/N=C\\c1cc(Br)cc(I)c1O)c1ccc(Br)cc1", "displacement": 22.1}, {"smiles": "CCN(CC)c1ccc(/C=C2/SC(=O)N(CNc3ccc(F)cc3)C2=O)cc1", "displacement": -1.1}, {"smiles": "CCOCCOC(=O)c1ccc(NC(=O)COc2cc(C)ccc2C(C)C)cc1", "displacement": 19}, {"smiles": "CN(C)c1ccc(/C=C(/c2ccccc2)c2nc3ccccc3[nH]2)cc1", "displacement": -11.7}, {"smiles": "COc1cc(CC(=O)O)c(C(C)=O)cc1OC", "displacement": -1.7}, {"smiles": "COC(=O)C1=C(C)NC2=C(C(=O)c3ccccc32)C1c1ccc(OCc2ccc([N+](=O)[O-])cc2)cc1", "note": "(centres undefined)", "displacement": 14.5}]}]}
